Test system: phosphorylation of the ROCK substrate MYPT-1 in H1299 lung cancer cells
Assay: Western immunoblotting for phospho-MYPT-1 in H1299 cells
Assay type: cell-based, human
Conditions: H1299 cells treated 1 h, increasing concentrations, western blot

COc1cccc([C@H](C)NC(=O)Nc2nc(-c3ccncc3)cs2)c1 [(S)-14f]
levels of phosphorylated MYPT-1 (P-MYPT-1): less active at decreasing the levels of P-MYPT-1

O=C(NCc1ccccc1)Nc1nc(-c2ccncc2)cs1 [Compound 5a]
levels of phosphorylated MYPT-1 (P-MYPT-1): decreased the levels of P-MYPT-1

COc1cccc([C@@H](C)NC(=O)Nc2nc(-c3ccncc3)cs2)c1 [(R)-14f]
levels of phosphorylated MYPT-1 (P-MYPT-1): more potent at decreasing P-MYPT-1 at all concentrations

COc1cccc(CNC(=O)Nc2nc(-c3ccncc3)cs2)c1 [Compound 5b]
levels of phosphorylated MYPT-1 (P-MYPT-1): decrease the levels of P-MYPT-1 in a concentration-dependent manner
